Assay results: article PMC4336329 (PLoS ONE, 2015)
Hit rate of the full screen: of about 310,000 compounds, about 2,200 (0.71%) showed an effect of 50% or more. The effect is printed as a negative number. This is one part of the list.

Biological target: human ether-à-go-go-related gene (hERG) potassium channel (human, UniProt Q12809)
Assay: primary screen, population patch clamp on CHO cells stably expressing hERG

Chain of human ether-à-go-go-related gene (hERG) potassium channel (Q12809 whole entry, looked up): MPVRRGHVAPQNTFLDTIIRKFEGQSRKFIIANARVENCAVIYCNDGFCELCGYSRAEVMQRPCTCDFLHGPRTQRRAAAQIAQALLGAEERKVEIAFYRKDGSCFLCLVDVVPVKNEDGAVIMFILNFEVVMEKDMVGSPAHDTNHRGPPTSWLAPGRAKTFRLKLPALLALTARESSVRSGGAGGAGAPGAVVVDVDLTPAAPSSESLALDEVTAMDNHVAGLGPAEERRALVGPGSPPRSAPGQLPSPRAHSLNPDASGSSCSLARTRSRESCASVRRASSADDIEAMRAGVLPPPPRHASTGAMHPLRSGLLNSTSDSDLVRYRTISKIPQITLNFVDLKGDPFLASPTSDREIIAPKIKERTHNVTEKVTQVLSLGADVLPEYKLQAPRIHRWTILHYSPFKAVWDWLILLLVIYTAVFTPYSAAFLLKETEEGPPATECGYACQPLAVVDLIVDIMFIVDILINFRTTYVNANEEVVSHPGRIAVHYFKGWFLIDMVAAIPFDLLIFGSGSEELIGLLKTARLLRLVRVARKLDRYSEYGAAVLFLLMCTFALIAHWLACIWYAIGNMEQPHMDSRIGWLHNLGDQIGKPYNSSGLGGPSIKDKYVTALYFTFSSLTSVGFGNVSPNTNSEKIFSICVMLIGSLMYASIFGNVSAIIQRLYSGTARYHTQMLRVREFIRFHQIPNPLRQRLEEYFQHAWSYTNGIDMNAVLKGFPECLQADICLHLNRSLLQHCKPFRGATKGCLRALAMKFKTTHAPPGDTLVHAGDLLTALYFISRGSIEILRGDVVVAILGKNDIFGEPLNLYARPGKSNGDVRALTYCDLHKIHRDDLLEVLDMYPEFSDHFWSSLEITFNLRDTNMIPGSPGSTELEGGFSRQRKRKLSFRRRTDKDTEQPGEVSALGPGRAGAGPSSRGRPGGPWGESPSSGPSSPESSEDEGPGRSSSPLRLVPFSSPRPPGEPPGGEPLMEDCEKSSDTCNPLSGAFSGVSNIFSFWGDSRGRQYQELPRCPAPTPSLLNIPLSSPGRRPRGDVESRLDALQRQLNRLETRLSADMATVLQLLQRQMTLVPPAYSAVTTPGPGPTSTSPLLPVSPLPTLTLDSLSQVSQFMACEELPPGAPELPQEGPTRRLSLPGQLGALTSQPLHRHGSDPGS

Structure (SMILES) | hERG current change (%, negative = inhibition) at 1uM [%]
CCc1nc2ccc(C(=O)NCc3ccc(C)o3)cc2nc1CC | 6.29
C=CCOC(=O)C1=C[C@@H](c2ccc(Br)cc2)C[C@@H](OCc2ccc(CO)cc2)O1 | 10.1
Cc1ccc(NC(=O)N(Cc2cccnc2)Cc2ccco2)cc1C | -20.9
CCCCn1cnc2sc(-c3ccccc3)cc2c1=O | 6.8
Cc1ccccc1C(=O)Nc1c(-c2cccs2)c(=O)c2ccccc2n1C | 11.6
Cc1ccnc(NS(=O)(=O)c2ccc(N3C(=O)c4ccccc4C3=O)cc2)n1 | 9.5
Brc1ccc(-c2cn3c(n2)SCC3)cc1 | 12.8
COc1cc(C(=O)N2CCN(C/C=C/c3ccccc3)CC2)cc(OC)c1C | 6.9
C/C(=N/NC(=O)Cc1cccn1C)c1ccccc1 | 10.1
O=C(O)CN1CCN(C(c2ccccc2)c2ccccc2)CC1 | 15.6
O=C(NCc1ccco1)c1ccc(NS(=O)(=O)c2cccc([N+](=O)[O-])c2)cc1 | 11.6
CC(NC(=O)CSc1nc2c(cc1C#N)CN(C)CC2)c1ccccc1 (stereo not shown) | -2.34
CCOc1ccccc1NC(=O)Nc1ccc2c(c1)CCC2 | -11.2
CC1(C)C(=O)OC(/C=C\c2ccccc2)C(C)(C)C1=O (stereo not shown) | 4.76
Cc1no[n+]([O-])c1COc1cccc(/C=N/Nc2nncn2N)c1 | 12.4
COc1c(Cl)cc(C(=O)NCc2ccco2)cc1Cl | 0.773
COC(=O)C1=C(C(=O)OC)[C@@H]2N(Cc3ccccc3)c3ccccc3[C@@]23C[C@@H](C(=O)OC)N=C3N1 | -0.347
NNC(=S)Nc1ccccc1Cl | -0.0438
Nc1nc(NCC2CCCO2)nc(Nc2cccc(F)c2)c1[N+](=O)[O-] (stereo not shown) | 0.655
Cn1c(C(=O)c2ccncc2)cc2ccccc21 | 5.92
O=C1CN(C(=O)CSc2nc3c(cnn3-c3ccccc3)c(=O)[nH]2)c2ccccc2N1 | 2.98
O=C(NCc1ccccn1)c1ccc(Cl)s1 | 6.51

Structure (SMILES) | hERG current change (%, negative = inhibition) at 1uM [%]
Cc1cc(-c2nnc(CCC(=O)NCCc3ccccc3F)o2)no1 | 2.54
CCN1C(=O)Nc2cccc3cccc1c23 | 10.3
C[C@]12CCC(=O)C=C1CC[C@@H]1[C@@H]2C(=O)C[C@]2(C)C(=O)CC[C@@H]12 | 16.8
O=C(Nc1cccc(Cl)c1)N(CCCN1CCOCC1)Cc1ccccc1F | -7.59
C=CCOc1c(Cl)cc(CNn2cn[nH]c2=S)cc1OC | 11.8
COc1ccc(CCC(=O)NNC(=O)Nc2ccc(C(C)=O)cc2)cc1 | 26.6
Cc1ccc(C(=O)NCc2ccc3c(c2)OCO3)cc1 | 2.49
COC(=O)c1[nH]nc(C(=O)OC(C)(C)C)c1-c1ccccc1 | 0.154
S=C(Nc1ccccc1)Nc1ccccc1Br | 13.9
O=C(COC(=O)Cc1cccc(C(F)(F)F)c1)NCC1CCCO1 (stereo not shown) | 8.06
O=C(N/N=C1\C(=O)c2cccc3cccc1c23)c1ccc(O)cc1 | 5.11
Cc1cc(NS(=O)(=O)c2ccc(Nc3nc(-c4ccc(C)c(C)c4)cs3)cc2)no1.Cl | 0.836
Cc1nc2ccccc2c(=O)n1NC(=O)c1ccc(Cl)c(Cl)c1 | 11.1
CCn1nc(C)c([N+](=O)[O-])c1C(=O)NNC(=O)c1ccccc1Cl | 11.5
COc1ccc(C(=O)c2oc3ccc(OC)cc3c2N)cc1 | 10.1
FC(F)(F)C1=CC(c2ccccc2)=NCCN1 | 7.54
Cc1ccc(C(C)C)c(OCC(=O)OCC(=O)NC2CCS(=O)(=O)C2)c1 (stereo not shown) | 14
CC(C)c1ccc(N(CC(=O)NC2CCCC2)C(=O)CCC(=O)Nc2nccs2)cc1 | 15.2
O=C(O)C1CC=CCC1C(=O)NC12CC3CC(CC(C3)C1)C2 (stereo not shown) | 10.9
CC(C)(C)NC(=O)CN(C(=O)CS(=O)CC(=O)Nc1ccc(F)cc1)c1ccccc1 (stereo not shown) | 16.2
CCOC(=O)c1c(C2COc3ccccc3O2)csc1N (stereo not shown) | 1.92
COc1ccc(Cc2nc3ccc(C(=O)N(C)CCCN4CCOCC4)cc3o2)cc1 | 10.8

Structure (SMILES) | hERG current change (%, negative = inhibition) at 1uM [%]
CC(=O)c1ccc(NC(=O)NC2CC(=O)N(c3ccc4c(c3)OCCO4)C2)cc1 (stereo not shown) | 8.58
O=C(O)c1ccc(N=N/C(=N\Nc2ccc(C(=O)O)cc2)c2ccccc2)cc1 | 8.1
Cc1ccc(CNC(=O)C2CCN(S(=O)(=O)c3ccc4c(c3)OCCCO4)CC2)cc1 | 6.87
CCOc1ccccc1N1CCN(C(=O)c2ccc(-c3ccc(OC(C)=O)cc3)cc2)CC1 | 10.2
CCCCNC(=O)NS(=O)(=O)c1ccc(NC(=O)C(NC(N)=O)C(C)CC)cc1 (stereo not shown) | 17.7
O=C(Nc1ccc(NC(=O)c2ccco2)cc1)c1ccc2c(c1)OCCO2 | 4.44
COc1ccc(/C=C/C2=Nc3ccccc3NC(C)(C)C2)cc1OC | -5.11
Cc1c(NC(=O)Nc2cc(F)c(F)cc2Cl)c(=O)n(-c2ccccc2)n1C | 14.2
COC(=O)c1c(NC(=O)CN2CCN(Cc3ccc4c(c3)OCO4)CC2)sc(C)c1C.O=C(O)C(=O)O | 5.45
CSc1ccccc1OCc1cc(C(=O)N2CCN3CCCC3C2)no1 (stereo not shown) | 6.81
COc1ccc(CCc2nnc(CCC(=O)N(C)Cc3ccncc3C)o2)cc1 | 10.2
O=C(CSc1nnnn1-c1ccccc1)Nc1ncc(Cc2cc(Cl)ccc2Cl)s1 | 13.4
COc1ccc(/C=N/N=C(\N)c2nonc2N)cc1OC | 19.4
CCc1nn(CC(=O)Nc2cc(C)ccc2C)c(=N)s1.Cl | 13.2
Cn1c(SCC(=O)Nc2ccc3c(c2)CCC3)nnc1C1CC1 | 3.3
O=C(CCNC(=O)c1ccccc1)NCCc1ccc(Cl)cc1 | 5.8
CCOC(=O)C(C)Sc1nc(=O)n2cccc(C)c2n1 (stereo not shown) | 8.98
S=c1[nH]nc(COc2ccccc2)n1/N=C/c1ccc(Cl)cc1 | 11.3
CCN(CCCNC(=O)CN(C)S(=O)(=O)c1cccc2nsnc12)c1cccc(C)c1 | 5.25
CC(C)C[C@H](NC(=O)c1[nH]cnc1C(=O)N[C@@H](Cc1ccccc1)C(=O)OCc1ccccc1)C(=O)OCc1ccccc1 | 10.2
N/C(=N\OC(=O)COc1ccc2ccccc2c1Br)c1cccnc1 | 13.1
Cc1ccc(S(=O)(=O)N2C(=O)CCC2C(=O)O/N=C(\N)c2ccc([N+](=O)[O-])cc2)cc1 (stereo not shown) | 31.9

Structure (SMILES) | hERG current change (%, negative = inhibition) at 1uM [%]
COc1ccc(OCC(=O)Nc2ccccc2C(=O)NC(C)C)cc1 | 8.66
CCOc1cc(NC(=O)C2CC2)c(OCC)cc1NC(=O)c1cccc(F)c1 | 12
O/N=C1/CCCCc2sccc21 | 0.319
Cc1c(Cl)cccc1-n1cnc(=O)c2ccccc21 | 1.24
O=C(NCc1ccc(Cl)cc1)c1ccc(-c2ccccc2C(F)(F)F)o1 | 6.11
CCCc1cc(=O)[nH]c(Nc2ccc3c(c2)OCCO3)n1 | 4.35
CCOC(=O)c1cc(CC)sc1NC(=O)COc1ccc2c(C)cc(=O)oc2c1 | 11
CC(C)OCCCNC(=O)c1c(N)n(Cc2cccs2)c2nc3ccccc3nc12 | -9.56
O=C(Nc1ccc(S(=O)(=O)NCc2ccccc2)cc1)c1ccccc1[N+](=O)[O-] | 10.8
CC(=NCc1cccnc1)c1c(O)n(-c2ccc(Cl)cc2)c(=O)[nH]c1=O | 11.9
CCc1nnc(NC(=O)C(C)Sc2ccccc2)s1 (stereo not shown) | 0.446
CCOC(=O)c1cc2c(ccn2-c2ccc(F)cc2)n1CC(=O)N1CCN(C(=O)c2ccco2)CC1 | 3.09
C#Cc1ccc(CN2CCC(N3CCC(C(=O)NCc4ccccn4)CC3)CC2)cc1 | -34.8
COc1ccc2c(c1OC)C(=O)N1C2SC[C@H]1C(=O)NC1CCCCC1 (stereo partly shown) | -7.32
Cc1ccc(S(=O)(=O)/N=S(\C)CC2CC2(Cl)Cl)cc1 (stereo not shown) | 21.8
O=C(Cc1ccccc1)OCC(=O)c1ccccc1 | -9.12
O=C(OCc1csc(-c2ccccc2)n1)c1ccccc1O | 25.3
Cc1ccc(NC(=O)c2ccccc2-c2cc(C)no2)cc1 | 3.69
Cc1csc(NC(=O)c2ccoc2C)n1 | -6.24
COc1ccccc1Cn1c(=S)[nH]c2ccc(F)cc2c1=O | 17.9
Cc1ccc(N2CC(C(=O)Nc3ccccc3C(=O)N3CCOCC3)CC2=O)cc1 (stereo not shown) | 17.9
Cc1ccc(CNC(=O)c2ccc(S(=O)(=O)Nc3c(C)n(C)n(-c4ccccc4)c3=O)cc2)cc1 | -3.29
